# Data published in the supplement of paper PMC8728848.
# The list shows a part of the results.
# Columns and labels:
# Assay in all cases: glycan array binding signal (z-score within array); higher = stronger binding
# Details in all cases: glycan notation: IUPAC condensed, linker removed
# [1] = target: Fuc(a1-2)[Gal(a1-3)]Gal(b1-4)GlcNAc(b1-2)Man
# Procedure, shortened: (§1)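 Arrays were curated from the Consortium for Functional Glycomics database, 3228 in total, and kept only where the protein sequence was available. Binding is expressed as a within-array Z-score. This score was averaged across arrays of the same protein sequence at different concentrations or buffers and across linkers, and negative values can be read as non-binding.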
# [2] = target: Fuc(a1-2)[Gal(a1-3)]Gal(b1-4)GlcNAc(b1-2)Man(a1-3)[Fuc(a1-2)[Gal(a1-3)]Gal(b1-4)GlcNAc(b1-2)Man(a1-6)]Man(b1-4)GlcNAc(b1-4)GlcNAc
# Procedure, shortened: as §1
# [3] = target: Fuc(a1-2)[Gal(a1-3)]Gal(b1-4)GlcNAc(b1-2)Man(a1-3)[Fuc(a1-2)[Gal(a1-3)]Gal(b1-4)GlcNAc(b1-2)Man(a1-6)]Man(b1-4)GlcNAc(b1-4)[Fuc(a1-6)]GlcNAc
# Procedure, shortened: as §1
# [4] = target: Fuc(a1-2)[Gal(a1-3)]Gal(b1-4)GlcNAc(b1-3)GalNAc
# Procedure, shortened: as §1
# [5] = target: Fuc(a1-2)[Gal(a1-3)]Gal(b1-4)GlcNAc(b1-6)GalNAc
# Procedure, shortened: as §1
# [6] = target: Fuc(a1-2)[Gal(a1-3)]Gal(b1-4)[Fuc(a1-3)]Glc
# Procedure, shortened: as §1
# [7] = target: Fuc(a1-2)[Gal(a1-3)]Gal(b1-4)[Fuc(a1-3)]GlcNAc
# Procedure, shortened: as §1
# [8] = target: Fuc(a1-2)[Gal(a1-3)]Gal(b1-4)[Fuc(a1-3)]GlcNAc(b1-3)GalNAc
# Procedure, shortened: as §1
# [9] = target: Fuc(a1-2)[Gal(a1-4)]Gal(b1-4)GlcNAc
# Procedure, shortened: as §1
# [10] = target: Fuc(a1-2)[GalNAc(a1-3)]Gal
# Procedure, shortened: as §1
# [11] = target: Fuc(a1-2)[GalNAc(a1-3)]Gal(b1-3)GalNAc(a1-3)[Fuc(a1-2)]Gal(b1-4)GlcNAc
# Procedure, shortened: as §1
# [12] = target: Fuc(a1-2)[GalNAc(a1-3)]Gal(b1-3)GalNAc(b1-3)Gal(a1-4)Gal(b1-4)Glc
# Procedure, shortened: as §1
# [13] = target: Fuc(a1-2)[GalNAc(a1-3)]Gal(b1-3)GlcNAc
# Procedure, shortened: as §1
# [14] = target: Fuc(a1-2)[GalNAc(a1-3)]Gal(b1-3)GlcNAc(b1-2)Man(a1-3)[Fuc(a1-2)[GalNAc(a1-3)]Gal(b1-3)GlcNAc(b1-2)Man(a1-6)]Man(b1-4)GlcNAc(b1-4)GlcNAc
# Procedure, shortened: as §1
# [15] = target: Fuc(a1-2)[GalNAc(a1-3)]Gal(b1-3)GlcNAc(b1-2)Man(a1-3)[Fuc(a1-2)[GalNAc(a1-3)]Gal(b1-3)GlcNAc(b1-2)Man(a1-6)]Man(b1-4)GlcNAc(b1-4)[Fuc(a1-6)]GlcNAc
# Procedure, shortened: as §1
# [16] = target: Fuc(a1-2)[GalNAc(a1-3)]Gal(b1-3)GlcNAc(b1-3)GalNAc
# Procedure, shortened: as §1
# [17] = target: Fuc(a1-2)[GalNAc(a1-3)]Gal(b1-3)GlcNAc(b1-6)GalNAc
# Procedure, shortened: as §1
# [18] = target: Fuc(a1-2)[GalNAc(a1-3)]Gal(b1-4)Glc
# Procedure, shortened: as §1
# [19] = target: Fuc(a1-2)[GalNAc(a1-3)]Gal(b1-4)GlcNAc
# Procedure, shortened: as §1
# [20] = target: Fuc(a1-2)[GalNAc(a1-3)]Gal(b1-4)GlcNAc(b1-2)Man
# Procedure, shortened: as §1
# [21] = target: Fuc(a1-2)[GalNAc(a1-3)]Gal(b1-4)GlcNAc(b1-2)Man(a1-3)[Fuc(a1-2)[GalNAc(a1-3)]Gal(b1-4)GlcNAc(b1-2)Man(a1-6)]Man(b1-4)GlcNAc(b1-4)GlcNAc
# Procedure, shortened: as §1
# [22] = target: Fuc(a1-2)[GalNAc(a1-3)]Gal(b1-4)GlcNAc(b1-2)Man(a1-3)[Fuc(a1-2)[GalNAc(a1-3)]Gal(b1-4)GlcNAc(b1-2)Man(a1-6)]Man(b1-4)GlcNAc(b1-4)[Fuc(a1-6)]GlcNAc
# Procedure, shortened: as §1
# [23] = target: Fuc(a1-2)[GalNAc(a1-3)]Gal(b1-4)GlcNAc(b1-3)Gal(b1-4)GlcNAc
# Procedure, shortened: as §1
# [24] = target: Fuc(a1-2)[GalNAc(a1-3)]Gal(b1-4)GlcNAc(b1-3)Gal(b1-4)GlcNAc(b1-3)Gal(b1-4)GlcNAc
# Procedure, shortened: as §1
# [25] = target: Fuc(a1-2)[GalNAc(a1-3)]Gal(b1-4)GlcNAc(b1-3)GalNAc
# Procedure, shortened: as §1
# [26] = target: Fuc(a1-2)[GalNAc(a1-3)]Gal(b1-4)GlcNAc(b1-3)[Fuc(a1-2)[GalNAc(a1-3)]Gal(b1-4)GlcNAc(b1-6)]GalNAc
# Procedure, shortened: as §1
# [27] = target: Fuc(a1-2)[GalNAc(a1-3)]Gal(b1-4)GlcNAc(b1-6)GalNAc
# Procedure, shortened: as §1
# [28] = target: Fuc(a1-2)[GalNAc(a1-3)]Gal(b1-4)[Fuc(a1-3)]GlcNAc
# Procedure, shortened: as §1
# [29] = target: Fuc(a1-2)[GalNAc(a1-3)]Gal(b1-4)[Fuc(a1-3)]GlcNAc(b1-3)GalNAc
# Procedure, shortened: as §1
# [30] = target: Fuc(a1-2)[GalNAc(a1-4)]Gal(b1-4)GlcNAc
# Procedure, shortened: as §1
# [31] = target: Fuc(a1-2)[GalNAc(b1-3)]Gal
# Procedure, shortened: as §1
# [32] = target: Fuc(a1-3)GlcNAc
# Procedure, shortened: as §1
# [33] = target: Fuc(a1-3)[Gal(b1-4)]Glc6S
# Procedure, shortened: as §1
# [34] = target: Fuc(a1-3)[Gal(b1-4)]GlcNAc
# Procedure, shortened: as §1
# [35] = target: Fuc(a1-3)[Gal(b1-4)]GlcNAc(b1-2)Man
# Procedure, shortened: as §1
# [36] = target: Fuc(a1-3)[Gal(b1-4)]GlcNAc(b1-2)Man(a1-3)[Fuc(a1-3)[Gal(b1-4)]GlcNAc(b1-2)Man(a1-6)]Man(b1-4)GlcNAc(b1-4)GlcNAc
# Procedure, shortened: as §1
# [37] = target: Fuc(a1-3)[Gal(b1-4)]GlcNAc(b1-2)Man(a1-3)[Fuc(a1-3)[Gal(b1-4)]GlcNAc(b1-2)Man(a1-6)]Man(b1-4)GlcNAc(b1-4)[Fuc(a1-6)]GlcNAc
# Procedure, shortened: as §1
# [38] = target: Fuc(a1-3)[Gal(b1-4)]GlcNAc(b1-3)Gal(b1-3)[Fuc(a1-4)]GlcNAc
# Procedure, shortened: as §1
# [39] = target: Fuc(a1-3)[Gal(b1-4)]GlcNAc(b1-3)Gal(b1-4)[Fuc(a1-3)]GlcNAc
# Procedure, shortened: as §1
# [40] = target: Fuc(a1-3)[Gal(b1-4)]GlcNAc(b1-3)Gal(b1-4)[Fuc(a1-3)]GlcNAc(b1-3)Gal(b1-4)[Fuc(a1-3)]GlcNAc
# Procedure, shortened: as §1
# [41] = target: Fuc(a1-3)[Gal(b1-4)]GlcNAc(b1-3)GalNAc
# Procedure, shortened: as §1
# [42] = target: Fuc(a1-3)[Gal(b1-4)]GlcNAc(b1-4)Gal(b1-4)[Fuc(a1-3)]GlcNAc
# Procedure, shortened: as §1
# [43] = target: Fuc(a1-3)[Gal(b1-4)]GlcNAc(b1-4)Gal(b1-4)[Fuc(a1-3)]GlcNAc(b1-4)Gal(b1-4)[Fuc(a1-3)]GlcNAc
# Procedure, shortened: as §1
# [44] = target: Fuc(a1-3)[Gal(b1-4)]GlcNAc(b1-6)GalNAc
# Procedure, shortened: as §1
# [45] = target: Fuc(a1-3)[Gal(b1-4)]GlcNAc(b1-6)[Gal(b1-3)GlcNAc(b1-3)]Gal(b1-4)Glc
# Procedure, shortened: as §1
binder,measurement,setting,value
HHA (Hippeastrum hybrid) (protein) MQQDCNLVLYDVDKPIWASNTGGLARDCHLNMQSDGNLVVYAPRNQVIWASNTQGENGNYVCILQKDRNVVIYGTARWATGTNIHGAGIVGVPGSAPQNTTAEMIKLVRKYLITK,glycan array binding signal (z-score),[1],-0.207
same,glycan array binding signal (z-score),[2],-0.112
same,glycan array binding signal (z-score),[3],0.204
same,glycan array binding signal (z-score),[4],0.244
same,glycan array binding signal (z-score),[5],-0.212
same,glycan array binding signal (z-score),[6],-0.208
same,glycan array binding signal (z-score),[7],-0.202
same,glycan array binding signal (z-score),[8],-0.077
same,glycan array binding signal (z-score),[9],-0.2
same,glycan array binding signal (z-score),[10],-0.21
same,glycan array binding signal (z-score),[11],-0.208
same,glycan array binding signal (z-score),[12],-0.213
same,glycan array binding signal (z-score),[13],-0.212
same,glycan array binding signal (z-score),[14],-0.123
same,glycan array binding signal (z-score),[15],0.519
same,glycan array binding signal (z-score),[16],-0.196
same,glycan array binding signal (z-score),[17],-0.217
same,glycan array binding signal (z-score),[18],-0.217
same,glycan array binding signal (z-score),[19],-0.216
same,glycan array binding signal (z-score),[20],-0.212
same,glycan array binding signal (z-score),[21],-0.159
same,glycan array binding signal (z-score),[22],0.441
same,glycan array binding signal (z-score),[23],-0.202
same,glycan array binding signal (z-score),[24],-0.145
same,glycan array binding signal (z-score),[25],-0.172
same,glycan array binding signal (z-score),[26],-0.22
same,glycan array binding signal (z-score),[27],-0.21
same,glycan array binding signal (z-score),[28],-0.188
same,glycan array binding signal (z-score),[29],-0.135
same,glycan array binding signal (z-score),[30],-0.208
same,glycan array binding signal (z-score),[31],-0.215
same,glycan array binding signal (z-score),[32],-0.222
same,glycan array binding signal (z-score),[33],-0.199
same,glycan array binding signal (z-score),[34],-0.218
same,glycan array binding signal (z-score),[35],-0.203
same,glycan array binding signal (z-score),[36],-0.207
same,glycan array binding signal (z-score),[37],-0.189
same,glycan array binding signal (z-score),[38],-0.203
same,glycan array binding signal (z-score),[39],-0.194
same,glycan array binding signal (z-score),[40],-0.203
same,glycan array binding signal (z-score),[41],-0.17
same,glycan array binding signal (z-score),[42],-0.264
same,glycan array binding signal (z-score),[43],-0.255
same,glycan array binding signal (z-score),[44],-0.204
same,glycan array binding signal (z-score),[45],-0.201
